# Measurements: PubChem BioAssay AID686978 (National Center for Advancing Translational Sciences (NCATS), 2013)
# Hit rate of the full screen: of about 420,000 compounds, about 64,000 (15%) were called active. Inconclusive results, whose numbers are uncertain, are shown with a selection of clear calls. Calls come from the whole dose curve; as a rule, active = well fitted inhibition curve with a large enough effect; inconclusive = small, poorly fitted or top-dose-only effect; inactive = flat fitted curve, though single readings scatter. No potency is given beside an inconclusive call; the fits are too rough.
# Test: qHTS for Inhibitors of human tyrosyl-DNA phosphodiesterase 1 (TDP1): qHTS in cells in absence of CPT; note: nearly all actives have a fitted effect of over 55% in size
# Conditions: DT40 Tdp1-/- hTDP1 cells, no CPT, ATP luminescence, 48 h; activity change, negative = growth inhibition: at 46.2 µM (top of the series) unless noted
# Procedure, shortened: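 Chicken DT40 Tdp1-/- cells complemented with human TDP1, screened without camptothecin (DMSO vehicle only), 400 cells/well. Compounds pin-transferred, cells incubated at 37 °C for at least 48 hr. Growth read as ATP-dependent luminescence (CellTiter-Glo, 30 min at RT).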
# % is set by controls: 0 for no effect and ±100 for the full control effect; potency is the fitted concentration of half-maximal effect; tags give direction and shape of the fitted curve.
SMILES,Potency,"activity change, negative = growth inhibition"
Cc1ccc(NC(=O)c2ccc(CSc3nccc(C)n3)cc2)cc1,"inconclusive [inhibitor, single point]",–
COc1ccc(N(CC(=O)N/N=C/c2cccc(OC)c2OC)S(=O)(=O)c2ccccc2)cc1,"inconclusive [inhibitor, single point]",–
O=C(CC1SC(N2CCCC2)=NC1=O)Nc1ccc(C(=O)N2CCN(c3cccc(Cl)c3)CC2)cc1 (stereo unspecified),"inconclusive [inhibitor, single point]",–
CCCN1C(=O)C2(c3ccccc31)c1c(oc3ccc(C)cc3c1=O)C(=O)N2CCOC (stereo unspecified),"inconclusive [inhibitor, partial curve]",–
Cc1ccc(C)c(OCC(=O)Nc2ccc3c(c2)OCO3)c1C,active: 18.4 µM,–
CCn1c(SCC(=O)Nc2ccccc2)nc2c1c(=O)n(C)c(=O)n2C,inactive,–
COc1ccccc1C1N=C(Nc2nc3ccccc3o2)NC2=C1C(=O)CC(C)(C)C2 (stereo unspecified),"inconclusive [inhibitor, single point]",–
CCOc1ccccc1NC(=O)c1cc(S(=O)(=O)NCc2ccco2)ccc1F,inactive,–
CCc1ccc(-c2nc(CCl)cs2)cc1,"inconclusive [inhibitor, single point]",–
N#Cc1cccc(-c2cc(NCc3cccnc3)ncn2)c1,inactive,–
Cc1nc(N2CCOCC2)c2c(C(=O)N3CCN(c4cccc(C)c4C)CC3)c(C)oc2n1,"inconclusive [inhibitor, single point]",–
COc1cc(C(=O)N2CC(=O)Nc3ccc(C)cc3C2c2ccc(F)cc2)cc(OC)c1OC (stereo unspecified),"inconclusive [inhibitor, single point]",–
Cc1cccc(C)c1NC(=O)CN(C)C(=O)CCC(=O)c1ccccc1,inactive,–
Cc1cc(Cl)ccc1OCC(=O)Nc1ccccc1CO,"inconclusive [inhibitor, partial curve, poor fit]",–
Cc1ccc(C)c(C(=O)CCC(=O)NNC(=O)Cn2nc(C)cc2C)c1,active: 2.06 µM,–
Cn1c(=O)n(C)c2cc(NC(=O)COc3ccc(F)cc3F)ccc21,"inconclusive [inhibitor, single point]",–
CN(Cc1ccccc1F)C(=O)CN1c2cccc3cccc(c23)S1(=O)=O,"inconclusive [inhibitor, single point]",–
O=C1CC(NNc2ccccc2)C(=O)N1c1cccc(Cl)c1 (stereo unspecified),"inconclusive [inhibitor, full curve, poor fit]",–
O=C(CCCn1c(SCC(=O)c2ccc(Cl)cc2)nc2ccccc2c1=O)NCc1ccco1,"inconclusive [inhibitor, partial curve]",–
CN(CC(=O)NCCc1ccccc1)S(=O)(=O)c1cnc[nH]1,inactive,–
c1ccc(N(c2ccccc2)c2nc(N3CCCC3)nc(-n3ccnc3)n2)cc1,active: 25.9 µM,–
Cc1cc(C)c(NC(=O)CCC(=O)N2Cc3ccccc3Oc3ncccc32)c(C)c1,"inconclusive [inhibitor, single point]",–
C=CCSC1=N/C(=C\c2ccc3c(c2)OCO3)C(=O)S1,"inconclusive [inhibitor, partial curve, poor fit]",–
CCCNC(=S)NC1CCCC1,"inconclusive [inhibitor, single point]",–

SMILES,Potency,"activity change, negative = growth inhibition"
Cc1ccc(S(=O)(=O)N(C)c2ccc(OC(=O)CN3C(=O)NC4(CCCC4)C3=O)cc2)cc1,"inconclusive [inhibitor, single point]",–
Cc1cnc(NC(=O)c2sc3ccccc3c2Cl)s1,"inconclusive [inhibitor, single point]",–
CCN(CC(=O)Nc1ccccc1C(F)(F)F)C(=O)CCc1nc2sc3c(c2c(=O)[nH]1)CCCC3,active: 16.4 µM,–
Cc1ccc(C)c(NC(=O)NCc2ccc3c(c2)CCN3C(=O)c2ccccc2)c1,"inconclusive [inhibitor, single point]",–
COc1ccc(Nc2cc(C)c3cc(NC(=O)c4cc(OC)cc(OC)c4)ccc3n2)cc1,active: 7.31 µM,–
O=C(CCCn1c(=O)oc2ccccc21)Nc1ccccc1,"inconclusive [inhibitor, single point]",–
N#Cc1ccc(-c2ccc(Cl)cc2)nc1SCC(=O)c1cccc(Cl)c1,"inconclusive [inhibitor, single point]",–
CCNC(=S)N1CCC(c2nc3ccccc3s2)CC1,"inconclusive [inhibitor, partial curve, poor fit]",–
Cc1cccn2c(=O)c(/C=C(\C#N)S(=O)(=O)c3ccc(Cl)cc3)c(N3CCC(C(N)=O)CC3)nc12,inactive,–
COc1cccc(-c2cnc(C(O)c3c(C)ccc4ccccc34)[nH]2)c1 (stereo unspecified),"inconclusive [inhibitor, single point]",–
CCOC(=O)c1oc2cc(O)cc(O)c2c(=O)c1OCc1ccccc1,active: 16.4 µM,–
Cc1ccc(-n2nc3c(=O)n(C(C)C(=O)NCc4ccccc4Cl)nc(C)c3c2C)cc1 (stereo unspecified),"inconclusive [inhibitor, single point]",–
Cc1ccc(-n2cccn2)c(CN2CCC(CO)(CCc3ccccc3)CC2)c1,"inconclusive [inhibitor, single point]",–
CCOC(=O)C1=C(C)c2ccccc2OC1C(=O)OCC (stereo unspecified),"inconclusive [inhibitor, single point]",–
CCOC(=O)C1=C(COC(=O)c2ccccc2OC)NC(=O)NC1C (stereo unspecified),"inconclusive [inhibitor, single point]",–
Cc1ccc2[nH]c(=O)c(COC(=O)c3cccs3)cc2c1,inactive,–
O=C(C1CCN(S(=O)(=O)N2CCC3(CC2)OCCO3)CC1)N1CCc2ccccc2C1,active: 16.4 µM,–
O=C(Nc1ccccc1Oc1ccccc1)C1CCCC1,inactive,–
CCCOc1ccc(C2c3c(oc4ccccc4c3=O)C(=O)N2c2nc(C)c(C(=O)OCC)s2)cc1 (stereo unspecified),inactive,–
COC(=O)Nc1nnc(-c2ccccc2OC)s1,–,inconclusive: -35.8% [inhibitor]
CS(=O)(=O)N1CCN(c2ccc([N+](=O)[O-])c(SCc3ccco3)c2)CC1,"inconclusive [inhibitor, single point]",–
CC(NC(=O)CCc1nnc(Cc2cccc(C(F)(F)F)c2)o1)C1CC1 (stereo unspecified),–,inconclusive: -34.6% [inhibitor]
O=C(N/N=C/c1ccc(Cl)cc1)c1n[nH]c2c1CCCC2,active: 0.92 µM,–
CC(=O)c1ccc(N2CCN(C(=O)c3ccc(Cn4c(=O)[nH]c5ccccc5c4=O)cc3)CC2)cc1,active: 16.4 µM,–

SMILES,Potency,"activity change, negative = growth inhibition"
COc1ccc(C23CC4CC(CC(C(=O)O)(C4)C2)C3)c(F)c1,inactive,–
CCN(c1ccc(C(=O)CN2C(=O)NC3(CCOc4ccccc43)C2=O)cc1)S(C)(=O)=O (stereo unspecified),"inconclusive [inhibitor, single point]",–
COc1cc(=O)n(C)c2c(OCC3OC(C)(C)OC3(C)C)cccc12 (stereo unspecified),inactive,–
CCN(CC)CCN1C(=O)c2ccccc2NC1c1cccc(F)c1 (stereo unspecified),inactive,–
CCOc1ccc(CN2CCN(Cc3cccc4nonc34)CC2CCO)cc1 (stereo unspecified),"inconclusive [inhibitor, single point]",–
CCn1c(/C=C/N(C)c2ccccc2)[n+](CC)c2ccc(Cl)cc21,active: 1.3 µM,–
COc1ccc(-c2noc(CN(C(=O)C(C)(C)C)C(C)C)n2)cc1,"inconclusive [inhibitor, partial curve]",–
Cc1ccc(NS(=O)(=O)c2cccc(C(=O)Nc3cccnc3)c2)c(C)c1,active: 14.6 µM,–
COc1ccc2nc(NC(=O)Nc3cccc4ccccc34)sc2c1,active: 18.4 µM,–
Cc1ccc(C(=O)NNC(=O)CSc2nnc(C3CC3)n2C)cc1,inactive,–
CC(C)c1ccc(NC(=O)CCC(=O)NCc2ccco2)cc1,"inconclusive [inhibitor, single point]",–
O=C1c2ccccc2C(O)(Cc2ccccc2)N1c1ccc2c(c1)OCO2 (stereo unspecified),"inconclusive [inhibitor, partial curve]",–
CCOC(=O)c1c(-c2ccccc2Cl)cn2ccccc12,"inconclusive [inhibitor, partial curve]",–
Cc1cc(C)nc(NS(=O)(=O)c2ccc(NC(=O)COc3ccccc3)cc2)n1,inactive,–
CC(C)c1ccc(NC(=O)C2(C)Cc3ccccc3C(=O)O2)cc1 (stereo unspecified),–,inconclusive: -31.8% [inhibitor]
CCC(CC)COC(=O)C(C#N)c1nc2ccccc2nc1N1CCOCC1 (stereo unspecified),active: 23.1 µM,–
COc1ccc(NC(=O)CCC(=O)N2CCC(c3ccccc3)=N2)cc1S(=O)(=O)N1CCCCC1,"inconclusive [inhibitor, single point]",–
CC(C)(C)C(=O)Nc1ccc(S(=O)(=O)Nc2ccccn2)cc1,–,inconclusive: -33.4% [inhibitor]
CC1CCCCC1NC(=O)CN(C)S(=O)(=O)c1ccc2c(c1)c(=O)n(C)c(=O)n2C (stereo unspecified),inactive,–
COc1ccc(-n2nc(C(=O)NCC(=O)Nc3cccc(C)n3)c3ccccc3c2=O)cc1,"inconclusive [inhibitor, partial curve]",–
COc1ccc(NS(=O)(=O)c2cc(OC)ccc2OC)cc1,–,inconclusive: -34.3% [inhibitor]
Cc1ccc2c(c1)-c1c(cnn1CC(=O)N1CCN(c3cc(Cl)ccc3C)CC1)CO2,"inconclusive [inhibitor, single point]",–
CCc1ccc(-c2cc(C)no2)cc1S(=O)(=O)NCCc1ccc(S(N)(=O)=O)cc1,inactive,–
